Experimental findings from paper PMC13083723 (Patterns, 2026) are described below.

Screen size: about 5,400 compounds; about 190 (3.5%) showed an effect of 50% or more. The list shows a part of the results. Residues, ends and D or L forms follow the SMILES beside them.

The test system of the assay is Vero-E6. In words: primary screen, phospholipidosis by LipidTOX staining; higher = more effect of the substance. To be noted: 10 µM. Summed up:
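Single-concentration screen at 10 μM, with DMSO 0.1 v/v % and amiodarone 10 μM as controls. Read-out is LipidTOX Red phospholipid staining, which tolerates aldehyde fixation, in Vero-E6 cells.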
`Clc1ccc2nsnc2c1NC1=NCCN1`: the result_ITMP is 0.86%. As to `CC(C)N1CCN(c2ccc(C(=O)c3c(-c4ccc(O)cc4)sc4cc(O)ccc34)cc2)CC1`, the result_ITMP was -7.16%. As to `Cc1cc2cc3c(C)cc(=O)oc3c(C)c2o1`, the result_ITMP is recorded as -5.78%. With `CC(=O)Nc1c(I)cc(I)c(C(=O)O)c1I` the figure was 0.28%; with `CCCCOc1ccc(C(=O)Nc2ccc(F)cc2F)cc1`, -8.12%. With `Nc1nc(OCc2cc(Br)cs2)c2[nH]cnc2n1` the figure was -7.63%.

As for `CC(=O)Nc1nnc(S(N)(=O)=O)s1`, the result_ITMP was found to be 1.15%. On to `CC(C)Oc1ccc2c(=O)c(-c3ccccc3)coc2c1`, for which the result_ITMP is -4.93%. With `O=C(CCCl)NCCc1ccccc1` the figure was 4.22%.

With `N[C@H]1CC[C@H](N[C@@H]2C[C@H]2c2ccccc2)CC1`, the result_ITMP worked out at 65.7%.

With `NC1(Cc2ccc(Cl)cc2)CCN(c2ncnc3[nH]ccc23)CC1`, the result_ITMP was 37.1%. `CC(C)(C)c1cc(O)c(C(C)(C)C)cc1O`: the result_ITMP amounted to 0.77%. In the case of `CC(C)c1ccccc1S(=O)(=O)c1cc(N)c2ncccc2c1[N+](=O)[O-]`, the result_ITMP is reported as -1.12%. With `C[N+]1(CC2CC2)[C@@H]2C[C@@H](OC(=O)[C@H](CO)c3ccccc3)C[C@H]1[C@@H]1O[C@@H]12` (stereo partly drawn) the figure was 7.9%. With `Cc1ccc(S(=O)(=O)Nc2nc3ccccc3nc2Nc2ccc3nsnc3c2)cc1` the figure was -6.5%. With `CCC(C)c1ccc(NC(=O)Cn2cnc3c2c(=O)n(C)c(=O)n3C)cc1` (stereo not drawn) the figure was -1.59%; with `CCOC(=O)C1=C(N)Oc2ccc(Br)cc2C1C(C#N)C(=O)OCC` (stereo not drawn), 0.34%; with `CCCCN(CC)c1nc(C)nc2c1c(C)c(C)n2-c1c(C)cc(C)cc1C`, -0.39%.

`N#C/C(=C1/SC[C@@H](c2ccc(Cl)cc2Cl)S1)n1ccnc1`: the result_ITMP is given as -11.6%. With `COc1cc([C@H]2Oc3cc([C@H]4Oc5cc(O)cc(O)c5C(=O)[C@@H]4O)ccc3O[C@@H]2CO)ccc1O` the figure was -5.32%; with `CC(C)C(=O)Nc1ncc(-c2cc(C(F)F)nn2-c2c(Cl)cccc2Cl)s1`, 2.21%; with `C/C=C(/C)C(=O)O[C@H]1C(C)=C[C@]23C(=O)[C@@H](C=C(CO)[C@@H](O)[C@]12O)[C@H]1[C@@H](C[C@H]3C)C1(C)C`, 0.09%.

In the case of `CCCCOc1cc(C(=O)OCCN(CC)CC)ccc1N`, the result_ITMP is 18.9%. Consider `O=S(=O)(O)c1ccc2[nH]c(-c3ccccc3)nc2c1`, for which the result_ITMP is given as -0.79%. With `Cc1nc2n(c(=O)c1CCN1CCC(c3noc4cc(F)ccc34)CC1)CCC[C@H]2O` the figure was -1.97%; with `C[C@@H](N)Cc1c[nH]cn1`, -1.95%; with `CC1(C)C(=O)N(c2ccc(C#N)c(C(F)(F)F)c2)C(=O)N1CCCCO`, -0.89%. Consider `CC(C)(C)c1ccc(NC(=O)N2CCN(c3ncccc3Cl)CC2)cc1`, for which the result_ITMP is on record as -2.26%. With `O=C(/C=C/c1ccc(O)c(O)c1)O[C@H](Cc1ccc(O)c(O)c1)C(=O)O` the figure was -3.9%; with `NC(=O)C1CCCc2c1[nH]c1ccc(Cl)cc21` (stereo not drawn), -0.07%; with `Cc1cccc(C)c1-n1c(=O)c2cnc(Nc3ccc(N4CCN(C)CC4)cc3)nc2n2c3ccccc3nc12`, 81.7%. In the case of `CCS(=O)(=O)c1cccc(-c2cc(C(=O)NC3CCN(C)CC3)c(C)c3[nH]c4ncc(C)cc4c23)c1`, the result_ITMP turned out to be 5.5%.

As to `COC(=O)[C@H](Cc1ccccc1)NC(=O)[C@@H](N)CC(=O)O` (H-Asp-Phe-OMe), the result_ITMP is recorded as -3.16%. With `C[C@H]1CC[C@@]2(OC1)O[C@H]1C[C@H]3[C@@H]4CC[C@@H]5C[C@@H](O)CC[C@]5(C)[C@H]4CC[C@]3(C)[C@H]1[C@@H]2C` the figure was -0.15%; with `NC(=O)N/N=C/c1ccc(Oc2ccc(F)cc2)cc1`, -8.28%. With `O=C(O)C[C@H]1CC[C@H](c2ccc(-c3ccc(Nc4ccc(C(F)(F)F)nc4)cn3)cc2)CC1` the figure was 1.52%; with `CNC(=O)[C@@H](NC(=O)[C@H](CC(C)C)[C@H](O)C(=O)NO)C(C)(C)C`, -6.67%; with `COc1cc(CNC(=O)CCCC/C=C/C(C)C)ccc1O`, -0.3%. With `Clc1ccc(C2(c3ccc(-c4cn[nH]c4)cc3)CCNCC2)cc1`, the result_ITMP amounted to 96.9%. Consider `O=C(NCCCN1CCOCC1)c1ccc(Cl)cc1`, for which the result_ITMP was -4.05%. With `COc1ccc(-c2cc(=O)c3c(O)c(OC)c(O)cc3o2)cc1OC` the figure was -1.14%; with `O=C(O)c1c2ccccc2cc2ccccc12`, -1.81%. With `Cc1cc(Oc2ccc3nc(COc4ccc(CC5SC(=O)NC5=O)cc4)n(C)c3c2)cc(C)c1N` (stereo not drawn) the figure was -0.04%.

For `C=C[C@](C)(O)CC[C@@H]1[C@@]2(C)CCCC(C)(C)[C@@H]2CC[C@@]1(C)O`, the result_ITMP was -0.29%.

With `C=CCN.ClCC1CO1` (stereo not drawn), the result_ITMP is listed as -4.42%. For `CC1(C)CN(C(=O)c2ccc(-c3cccc4nc(NC(=O)C5CC5)nn34)cc2)C1`, the result_ITMP is listed as -2.5%. With `FC(F)(F)c1cccc(C2=CCN(CCc3ccc4ccccc4c3)CC2)c1` the figure was -1.88%; with `Cc1cc(C)c(S(=O)(=O)Nc2cccc(C(F)(F)F)c2)c(C)c1`, -1.98%. On to `CCN(CC)CCOCCOC(=O)C(CC)(CC)c1ccccc1`, for which the result_ITMP amounted to 39%.

As to `CCCOc1ccc(C(=O)OCCN(CC)CC)cc1N`, the result_ITMP amounted to 9%. With `Nc1nc2c(ncn2CCC(CO)CO)c(=O)[nH]1` the figure was 3.08%. With `CCOC(=O)[C@H](Cc1ccccc1)NC(=O)c1cc(Cl)c(OCCN2CCN(C)CC2)c(Cl)c1O` the figure was -2.45%; with `COC(=O)Nc1ccc2[nH]cc(CCNC(C)=O)c2c1`, -2.02%. With `Nc1ncnc2c1c(COc1cccc(Cl)c1)nn2C1CCOCC1` the figure was -4.63%; with `CC(C)[N+]1(C)C2CC[C@H]1C[C@@H](OC(=O)C(CO)c1ccccc1)C2` (stereo partly drawn), -3.79%; with `CC[C@@H](CO)NCCN[C@@H](CC)CO`, -1.3%. As for `CCN(CC)CCCCNc1ncc2cc(-c3cc(OC)cc(OC)c3)c(NC(=O)NC(C)(C)C)nc2n1`, the result_ITMP is listed as 90.1%.

As for `CC(CN(C)C)C(C)(O)Cc1ccc(Cl)cc1` (stereo not drawn), the result_ITMP came out at 8.83%. With `C=CCN1CC[C@]23CCCC[C@H]2[C@H]1Cc1ccc(O)cc13` the figure was 0.64%; with `C[C@]1(Cn2ccnn2)[C@H](C(=O)O)N2C(=O)C[C@H]2S1(=O)=O`, -1.32%.

As for `O=c1ccc2[nH]cc(C3=CCNCC3)c2[nH]1`, the result_ITMP is -1.73%. Regarding `CC(=O)OCC(=O)[C@@]1(OC(C)=O)[C@@H](C)C[C@H]2[C@@H]3C[C@H](F)C4=CC(=O)C=C[C@]4(C)[C@@]3(F)[C@@H](O)C[C@@]21C`, the result_ITMP is given as -3.46%. Regarding `C#C[C@]1(OC(C)=O)CCC2C3CCC4=C/C(=N/O)CCC4C3CC[C@@]21CC` (stereo partly drawn), the result_ITMP worked out at 1.9%. With `CC(C)C[C@H](NC(=O)CNC(=O)c1cc(Cl)ccc1Cl)B1OC(=O)C(CC(=O)O)(CC(=O)O)O1` the figure was -2.06%. With `O=C(NCCN1CCCCC1)c1ccc(I)cc1` the figure was 12.3%. With `CC1(C)Oc2ccc(C#N)cc2[C@@H](N2CCCC2=O)[C@@H]1O.CC1(C)Oc2ccc(C#N)cc2[C@H](N2CCCC2=O)[C@H]1O` the figure was -2.09%.

As for `CC1=C(/C=C/C(=C/C=C/C(C)=C/C(=O)O)c2ccc(C)cc2)C(C)(C)CCC1`, the result_ITMP was -5.87%.

`CC(=O)Nc1cc([As](=O)(O)O)ccc1O`: the result_ITMP is -8.7%. For the molecule `C=CCOC(Cn1ccnc1)c1ccc(Cl)cc1Cl` (stereo not drawn), the result_ITMP worked out at 14.2%. With `Cc1cc2c(C(C)C)c(O)c(O)c(C=O)c2c(O)c1-c1c(C)cc2c(C(C)C)c(O)c(O)c(C=O)c2c1O` the figure was -13.8%; with `C[N+]1(C)C2CC[C@H]1C[C@@H](OC(=O)C(O)c1ccccc1)C2` (stereo partly drawn), -3.36%.

`CCC[C@@]1(CCc2ccccc2)CC(O)=C([C@H](CC)c2cccc(NS(=O)(=O)c3ccc(C(F)(F)F)cn3)c2)C(=O)O1`: the result_ITMP was -0.63%. With `CCCCC(=O)NCCc1c(Cc2ccccc2)[nH]c2ccccc12`, the result_ITMP was -4.15%.

For `O=[N+]([O-])O[C@@H]1CO[C@H]2[C@@H]1OC[C@@H]2O`, the result_ITMP is reported as -9.17%. With `O=C(O)/C=C/CO` the figure was -4.68%. With `C[C@@H]1COC(Nc2ccc3ncnc(Nc4ccc(OCc5nccs5)c(Cl)c4)c3c2)=N1` the figure was 9.37%.

With `Cn1cc(-c2ccc3c(c2)CCN3C(=O)Cc2cccc(C(F)(F)F)c2)c2c(N)ncnc21`, the result_ITMP is -0.76%. Turning to `Oc1cccc(-c2nc(N3CCOCC3)c3oc4ncccc4c3n2)c1`, the result_ITMP was -1.98%. With `O=c1[nH]c2ccccc2n1C1CCN(CCCC(c2ccc(F)cc2)c2ccc(F)cc2)CC1` the figure was 28.9%. With `Fc1ccc(-c2c3cccc(C(F)(F)F)c3nn2Cc2ccc(F)cc2Cl)cc1` the figure was -0.88%; with `Cc1cc(SCc2sc(-c3ccc(C(F)(F)F)cc3)nc2C)ccc1OCC(=O)O`, 0.61%.

For the molecule `CC(=O)OCC(=O)[C@H]1CC[C@H]2[C@@H]3CCC4=CC(=O)CC[C@]4(C)[C@H]3CC[C@]12C`, the result_ITMP is 1.95%. Regarding `Cc1cc(C(=O)Nc2cccc(C(=O)Nc3cccc(C(F)(F)F)c3)c2)on1`, the result_ITMP was -3.16%.

With `N#C/C(=C\c1ccc(O)c(O)c1)C(=O)NCc1ccccc1`, the result_ITMP is given as -0.81%. For `O=C(/C=C/c1ccccc1)NCCO`, the result_ITMP is -0.62%.

For `O=C(O[C@H]1CN2CCC1CC2)N(Cc1cc(F)c(F)c(F)c1)c1cccc(F)c1`, the result_ITMP came to 71.4%.

`O=C([O-])c1ccccc1Nc1cc(Cl)ccc1C(=O)[O-]`: the result_ITMP was -3.54%.

Take `CC1(C)[C@@H](OC(=O)CCC(=O)O)CC[C@]2(C)[C@H]3C(=O)C=C4[C@@H]5C[C@@](C)(C(=O)O)CC[C@]5(C)CC[C@@]4(C)[C@]3(C)CC[C@@H]12`: the result_ITMP is -2.7%.

In the case of `CC[C@H](CO)Nc1nc(NCc2ccc(-c3ccccn3)cc2)c2ncn(C(C)C)c2n1`, the result_ITMP is -3.04%. With `O=C1CCCC(=O)C1C(=O)c1ccc(C(F)(F)F)cc1[N+](=O)[O-]` the figure was -5.98%.
